Laboratory results from publication PMC4242493.
The list shows a part of the results. The list includes weakly bound sequences.

target: MaxL homodimer (UniProt P61244); assay: universal protein-binding microarray (PBM); conditions: PBS-based mixture, 10 nM His-tagged protein dimer, 2% milk, 200 ng/uL BSA, 50 ng/uL salmon testes DNA, 0.02% TX-100; detection with Alexa 488 anti-His …; high values mean tight binding; most listed sequences are background and not binding sites; double strand, one strand shown
Chain of UniProt P61244 (P61244 whole entry): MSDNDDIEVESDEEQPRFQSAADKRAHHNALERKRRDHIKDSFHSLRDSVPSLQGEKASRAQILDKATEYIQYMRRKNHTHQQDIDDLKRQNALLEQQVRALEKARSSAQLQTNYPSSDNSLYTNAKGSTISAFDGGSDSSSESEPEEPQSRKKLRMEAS

| Sequence | binding signal (normalized occupancy) |
| --- | --- |
| ACTCAATC | 0.0799 |
| ATGTTTGA | 0.0849 |
| GATCTCCC | 0.0755 |
| CCTGGCGC | 0.0669 |
| AGCAATAA | 0.071 |
| ACCGTGAT | 0.0871 |
| GATAGGCC | 0.0744 |
| ATCATCGC | 0.0795 |
| AACGAGTC | 0.0781 |
| AATACTGG | 0.0767 |
| CAATATTA | 0.0746 |
| CACAGAGA | 0.0776 |
| TAAGTGTA | 0.0831 |
| CCAGCAGA | 0.0768 |
| CTTCATAA | 0.0735 |
| ACAATCGA | 0.0713 |
| CCTGTTTA | 0.0713 |
| ATACGACA | 0.077 |
| ATCGGCTA | 0.0719 |
| ACCAAAGC | 0.0689 |
| GATCTCGA | 0.0734 |
| GGCCTTCA | 0.0697 |
| ACTGAGAA | 0.0662 |
| AAAGGGGT | 0.0753 |
| TATTTTAA | 0.0772 |

| Sequence | binding signal (normalized occupancy) |
| --- | --- |
| AAGCAACT | 0.0694 |
| AACAACCG | 0.0774 |
| ACGAACCG | 0.0718 |
| CCGGTGGC | 0.0692 |
| GAATAACA | 0.0791 |
| CGGCTCAG | 0.065 |
| AGTGCGAA | 0.0743 |
| CAGTACAC | 0.082 |
| GTAAGGGA | 0.0762 |
| ACGGTGTC | 0.0703 |
| ATGGGCTA | 0.0792 |
| TCATATCA | 0.0849 |
| ACCCCGAT | 0.0826 |
| CAGATGGG | 0.0837 |
| GCGCGTGA | 0.106 |
| ACGAAGTG | 0.0717 |
| GGCCTGCA | 0.0744 |
| ATATCCTG | 0.0815 |
| AAATCATT | 0.0728 |
| CAGTTGAA | 0.0762 |
| AAGGGCAG | 0.0755 |
| ATGTCCGC | 0.0798 |
| CCAGATGC | 0.0801 |
| ACGTTACG | 0.0758 |
| ACCGGAAG | 0.0719 |

| Sequence | binding signal (normalized occupancy) |
| --- | --- |
| GCTCGTCA | 0.0699 |
| GAGGCGCA | 0.0721 |
| GCGTGTTA | 0.101 |
| AGACGAAT | 0.0711 |
| TAATCCCA | 0.0868 |
| GCTAGGAC | 0.0694 |
| AAACTCGC | 0.069 |
| CGTAGGTA | 0.0732 |
| ACCAGCGG | 0.0693 |
| CCTGGGCA | 0.0702 |
| GGGGACAC | 0.0719 |
| CTCCTTAC | 0.0772 |
| AGGACATC | 0.0719 |
| AGAGCTAA | 0.0683 |
| TGGCGTAA | 0.0728 |
| ATGGCTCA | 0.0798 |
| TCGGAAGA | 0.0706 |
| TCAAAAGA | 0.0734 |
| GTATATAC | 0.0866 |
| CTTGCGAC | 0.0725 |
| GCGTCAGC | 0.0714 |
| CTGAACAG | 0.0682 |
| AATACAGC | 0.0751 |
| CGAGGTAG | 0.0739 |
| CAGGACTG | 0.0714 |

| Sequence | binding signal (normalized occupancy) |
| --- | --- |
| CATTGCTA | 0.0798 |
| AAACTTGG | 0.0681 |
| AGAGACGA | 0.0734 |
| TTGCAAAA | 0.0751 |
| AGAACGGA | 0.0699 |
| GTGGTCAA | 0.0837 |
| AGTCTAGG | 0.0681 |
| GATAGGTA | 0.0782 |
| CCTATGTC | 0.0759 |
| AGACGACC | 0.0696 |
| ATGAGATA | 0.0762 |
| GAATGATA | 0.0847 |
| ACAGCTAG | 0.0715 |
| ATCACGCG | 0.132 |
| AAACGGTG | 0.0723 |
| AACGCTTC | 0.0768 |
| GACGTCGA | 0.0676 |
| CTATTCTA | 0.0771 |
| ACCGCGCC | 0.0729 |
| GGAACAAC | 0.0718 |
| ACTCAAAT | 0.0797 |
| CGTATAAC | 0.0804 |
| CGGGAGAG | 0.0681 |
| ATGGAGGA | 0.0837 |
| CCTAACAC | 0.0797 |

| Sequence | binding signal (normalized occupancy) |
| --- | --- |
| AGATCCCT | 0.0755 |
| CGCGGTAG | 0.0751 |
| AATTACGG | 0.0744 |
| AGTGTGTA | 0.0806 |
| CGGTATGC | 0.0782 |
| GGATATAC | 0.0812 |
| ACAGCTGC | 0.0723 |
| AACAGTAT | 0.0793 |
| GATACCAA | 0.078 |
| GTATCAGA | 0.0735 |
| ACCACTAT | 0.0819 |
| ATTGGAAG | 0.076 |
| AATCGATC | 0.0741 |
| GCACTGGC | 0.071 |
| AAAGCAAT | 0.0711 |
| ATGAGACC | 0.0803 |
| GGCACTCA | 0.0801 |
| AAGGGAGT | 0.0731 |
| CTTATGTC | 0.0754 |
| GCCGCGCC | 0.0686 |
| ACCATTAA | 0.0795 |
| CCGTAAAA | 0.0707 |
| AGCTCGCG | 0.0671 |
| ACGCGTGC | 0.13 |
| CCAGTACC | 0.0725 |

| Sequence | binding signal (normalized occupancy) |
| --- | --- |
| CTTCCTCC | 0.0697 |
| AGTGTTCG | 0.0757 |
| TTAGGGAA | 0.0754 |
| ACGTGAGG | 0.0969 |
| AGTACAAC | 0.0757 |
| CAGGCGGG | 0.0747 |
| GAATCTCC | 0.0703 |
| GAACAGCA | 0.0796 |
| CGTACTAC | 0.0793 |
| GAGTCCGA | 0.072 |
| CTGCCCAC | 0.0872 |
| GATTTTGC | 0.0747 |
| GGCTGCGA | 0.0661 |
| AGGTACTG | 0.0722 |
| TACTATGA | 0.0744 |
| CGGCGACC | 0.0677 |
| CTGACTGA | 0.0702 |
| AAGATGGG | 0.0764 |
| ACCTTGTA | 0.0732 |
| CCGTACGA | 0.0732 |
| GTACAAAA | 0.0757 |
| CACGGTCA | 0.083 |
| ATTTGAAC | 0.0735 |
| ACTCTGAG | 0.0705 |
| TGGGCCCA | 0.0716 |

| Sequence | binding signal (normalized occupancy) |
| --- | --- |
| AAGAATAC | 0.0745 |
| CGCCCACG | 0.0896 |
| AGCACATG | 0.187 |
| AGTGTCCA | 0.0709 |
| CTAGAATC | 0.0714 |
| CACCAGGG | 0.0776 |
| CGGTGACA | 0.0752 |
| TACGAGTA | 0.072 |
| AGGTCCGG | 0.0717 |
| AGCTAATC | 0.0706 |
| CCCGCTCG | 0.0756 |
| ATACCTGG | 0.0794 |
| GCACAATA | 0.08 |
| CCCCGTAG | 0.0708 |
| CCGCGGGC | 0.0638 |
| CAGCGACA | 0.0785 |
| CACACAGG | 0.0787 |
| CTTAATCC | 0.0752 |
| TTATGAAA | 0.0765 |
| ACTGCACC | 0.0739 |
| AGCGCCAT | 0.0704 |
| AGATCGTC | 0.073 |
| ATTTTGGC | 0.0796 |
| AAGAGCTG | 0.0717 |
| CCCTGGTC | 0.0713 |

| Sequence | binding signal (normalized occupancy) |
| --- | --- |
| GCATAACC | 0.0776 |
| AGAGACAG | 0.0718 |
| CATTGAGA | 0.0728 |
| AGATTGTA | 0.0752 |
| GGAGCAGA | 0.0682 |
| AACGCATG | 0.121 |
| ACGAAGTC | 0.071 |
| ATAAGGCG | 0.0737 |
| TACTACGA | 0.0764 |
| TACGCGGA | 0.0723 |
| GGGTCACC | 0.0752 |
| AAAAGCGG | 0.0667 |
| CGAAGACG | 0.0664 |
| CTTTGGAA | 0.0702 |
| AAATCCCG | 0.0742 |
| AGGGTAAG | 0.0793 |
| ACCGATGA | 0.0782 |
| GGTTAGGA | 0.0774 |
| GGCTCTGA | 0.076 |
| AGCGAAGC | 0.0701 |
| AGAGCCCC | 0.0718 |
| GAGGACCC | 0.0739 |
| CATCTGTC | 0.0856 |
| GGGATGAC | 0.077 |
| ATTCGACA | 0.0756 |

| Sequence | binding signal (normalized occupancy) |
| --- | --- |
| CCGGGAAG | 0.0675 |
| AGTCTGAT | 0.0755 |
| ACGAAACA | 0.0742 |
| TAGACGAA | 0.073 |
| TACGAAAA | 0.0738 |
| CGGATCAC | 0.0753 |
| ATGCTGCG | 0.0796 |
| AAAAGCCT | 0.0691 |
| AAGGAGGT | 0.074 |
| TGCCGAAA | 0.0752 |
| CCGCCTAC | 0.0701 |
| CGTTCGGA | 0.0719 |
| AACAATGT | 0.078 |
| CGTTGTAG | 0.0747 |
| CGCTGCCG | 0.0741 |
| ACCAGTGG | 0.0717 |
| ATCAAGAC | 0.0759 |
| CAAGTCAC | 0.0795 |
| CTATAGGC | 0.0725 |
